Experimental data taken from article PMC5382721 (Cell reports, 2017).
Values belong to the binder of their own block, whether it stands above or below them.

Experiments:
[1] = molecular target: T1, eIF3c-B_(36–163) (yeast (S. cerevisiae), UniProt P32497 36-163); assay: ITC
[2] = molecular target: T1, eIF3c-B_(36–163); assay: NMR titration

binding result [1]: binds
B1: eIF[…]A (natural protein)
chain: not shown

binding result [2]: binds
B2: eIF[…]P (natural protein)
chain: not shown

binding result [1]: binds
B3: eIF[…]E (natural protein)
chain: not shown
